# ± gives the standard deviation of the averaged measurements. This is one part of the list.
# System: PfAP2-I AP2 domain 3 (GST-tagged)
# Test: gcPBM binding intensity (ln(normalized median fluorescence intensity)); higher = stronger DNA binding
# In short: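 GST-tagged P. falciparum DNA-binding domains, expressed in E. coli (about 25 μg on average), were applied for 1 h to an Agilent 4 × 180k array of primer-extended double-stranded 36-bp intergenic genomic probes plus negative controls. The binding buffer was 1× PBS with 1% milk, 0.2 mg/ml BSA, 0.5% salmon testes DNA and 0.03% Triton X-100. Bound protein was detected with Alexa488 anti-GST antibody and scanned at 488 nm. Binding intensity is the highest Masliner-normalised natural-log median intensity across replicate spots of either probe orientation.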
row,Sequence,gcPBM binding intensity (ln)
1,AAAAAAAAAAGAAACACACACATATAGATTTATAAC [CACACA_site6927],7.69 ± 0.69
2,GCTCTAATTAATATTTGTACACACATATTTAACCTA [XGTACX_site6808],8.21 ± 0.73
3,TTTTTTTTTTTTTTTTGTACATAATTCCATATTTTT [XGTACX_site1789],8.04 ± 0.65
4,TGATCTTTACACATATTATATATATATAAAAAAAAA [XGTACX_negctrl_site360],7.8 ± 0.42
5,TTATACTGTACAAAAAGAATAGCAGTATAACAAAAA [CACACA_negctrl_site755],8 ± 0.69
6,AAAAAAAAATCATATTGTACGTAAAAAAAAAAAAAA [XGTACX_site476],8.22 ± 0.38
7,AATATGTTTTGTTAGGTTGGTGTTGGTAGAATGTTT [CACACA_negctrl_site1563],7.79 ± 0.51
8,ACAGGATTGGTTCAAACACACATATTATAGGACTAT [CACACA_site6455],7.75 ± 0.5
9,ATAATCCTTAGACACACACACACACGAATAAATAAA [CACACA_site6364],8.05 ± 0.4
10,CGAAAAAATAAAAAAAAAATAAAATAAAATAAATAA [TGCATGCA_negctrl_site278],7.4 ± 0.4
11,CAATATATTTGATTTACACACTTACAATGTATTTAA [CACACA_site5632],7.67 ± 0.64
12,TCTGTAAATATGTATACACACATATATGATCAATAT [CACACA_site3234],7.87 ± 0.52
13,AGTAGAAAAGGAACATGTACGAATTAAAAAAATAAT [XGTACX_site2347],8.08 ± 0.72
14,AATTAAATGATTTATACATGCATATAAATATAAATA [TGCATGCA_site579],7.96 ± 0.59
15,TACACCATGATACATACACACAGACATATACACATT [CACACA_site6601],8.02 ± 0.45
16,ACATATATATATATATATATATATATATTTATTTAT [CACACA_negctrl_site734],8.43 ± 0.26
17,AAAAAACATTTGATCTGTACGCATAGACAATTATAT [XGTACX_site960],7.75 ± 0.46
18,AATAATATGTTATCTCTTACACATATAAAAAATAAA [XGTACX_negctrl_site370],7.38 ± 0.43
19,TAAAAGAAAGCACATACACACACAAAAAAAAAAAAG [CACACA_site8159],8.16 ± 0.35
20,TATCCTTATATTTGCACACACACACCCTAAAATGAA [CACACA_site1029],9.88 ± 0.27
21,TTTATATTTAAAAGGATGCACTACAAATTCTAAATA,8.95 ± 0.18
22,AAAACAAACAGACACACACACATATTTATATTTATA [CACACA_site7681],7.81 ± 0.37

row,Sequence,gcPBM binding intensity (ln)
1,TTATATTAAACAAACACACACATATAAATATAAATA [CACACA_site7174],7.95 ± 0.41
2,AAGACAAATATGAAGAGTACATTTATATAAAAATTA [XGTACX_site5142],7.61 ± 0.5
3,CTACAATATCTTTAAAGTACTTTTATATAACTACCA [XGTACX_site6119],7.92 ± 0.47
4,ATATATTTTTATGTAGTGCATTTAAATAATAAATGC,10.7 ± 0.55
5,ATTTTTTCCAATTCTTTACCTTAGAAAGGTGTTCAA [CACACA_negctrl_site1401],7.72 ± 0.82
6,ATTCTAAATAAATGTACACACAAAAATAAATGTATA [CACACA_site1732],7.92 ± 0.22
7,ATATATATATAATGAAGTACGAAAAAATAAGAAATG [XGTACX_site4001],8.91 ± 0.24
8,ACCTCATAATATTTAACACACAAAATTATATGTATG [CACACA_site1704],7.86 ± 0.44
9,AATGATCAGATATACACACACACAAAAAAAAAAAAA [CACACA_site7806],7.96 ± 0.67
10,GTAAATAAATAAATAAATAAATATATATATATATAT [CACACA_negctrl_site1737],9.41 ± 0.37
11,AATAAAAAAAAATTCACACAAAGTTAGATTAACTAT [CACACA_site4224],7.39 ± 0.54
12,CACAAAAATTTATACACACACATATAAAATATAGAT [CACACA_site6218],7.85 ± 0.26
13,AGTTATTACACACAAACATGCATTAATATCAAAAAA [TGCATGCA_site63],8.45 ± 0.4
14,TTCACTATACAAAGGTGTACTTAATTTTGTCCCATT [XGTACX_site7483],7.92 ± 0.47
15,AATTCACATGTGAACTAAAAGAATATTATATATATA [CACACA_negctrl_site1632],8.64 ± 0.36
16,AAATATATATATAGTACATGCAGTAGATAATTTAAT [TGCATGCA_site299],8.44 ± 0.93
17,ATTAGGTATTTTTTTTGTACATATTATATAATGTGA [XGTACX_site3815],7.79 ± 0.74
18,TAAAATATACAAATTTGTACATATATATGTATGTAT [XGTACX_site1127],7.94 ± 0.49
19,TGCAGGTGTTATTCACGTACGCATTTGATTAAAAAA [XGTACX_site7743],8.53 ± 1.1
20,TAATTTTATATAAATTGTACAAAAATATTTTATTAA [XGTACX_site7166],7.62 ± 0.3
21,ATTAGAAAATAAAATAATAAATAAAATAAAAAAAAA [CACACA_negctrl_site409],7.49 ± 0.82
22,ATAAAAACATAAAAATGTACATATATATATATATAT [XGTACX_site7165],9.2 ± 0.55

row,Sequence,gcPBM binding intensity (ln)
1,GTGTTGGGAAAAGGCATGCACTTTTTTTTTTTTTTT,9.08 ± 0.61
2,ATGTATATGCAAACATGTACATATATAAACATATAT [XGTACX_site4159],7.88 ± 0.69
3,AATATTAGGTTATGTAGTACATAACAATAATTATAC [XGTACX_site5733],8.05 ± 0.48
4,AAGGAATATGTATATACACACAGGTACATATTTATA [CACACA_site6344],7.86 ± 0.47
5,ATAAAGAATATAAATACACACTTAAATATATATTAT [CACACA_site6071],7.64 ± 0.44
6,AATAAGAATTAAAAATGTACAAAAAAATGTATTTAT [XGTACX_site8005],7.64 ± 0.63
7,AAGTATAAAATATTTTGTACTTAAAAAATTATATGG [XGTACX_site2180],7.72 ± 0.35
8,TTTTTTTTTTTTGGTAGTACATAAATATTTTATGGA [XGTACX_site6851],8.26 ± 0.57
9,AGTGGGATTTTTAATTGTACATAAATAATATCATAA [XGTACX_site4163],8.04 ± 0.4
10,CATGTTATATATATATGTACTAAAAATATAATATAA [XGTACX_site1978],7.76 ± 0.49
11,CAATAAATAATAAATACATGCAAGTATGAAGATATA [TGCATGCA_site859],7.86 ± 0.67
12,TATATATATTTTAACACACACATATATATATTTATA [CACACA_site2765],8.06 ± 0.49
13,TGTTTGATGGTACACGTACACACCTTGCAAATATTT [CACACA_site888],8.24 ± 0.67
14,AATATAAAATAGAAAAATGAAAAAAAAAAAAAGGGT [CACACA_negctrl_site1263],8.21 ± 0.62
15,TATGAATATTGCATGTGTACCTATTATCCTTTTAAA [XGTACX_site4311],8.05 ± 0.6
16,ATAATTATTTTCCCGTGTACTTATTTTTTTCAAGTA [XGTACX_site8843],8.29 ± 0.59
17,ATATAAAATAAAAAAAAAAAAAAAAAAAAAAAAAAA [CACACA_negctrl_site1234],8.35 ± 1.1
18,TAATTAAAAAATGAATAAATGAATAAATAAATAAAT [CACACA_negctrl_site838],7.66 ± 0.85
19,TTTTTGTATCCTTTTAATATTAAATAAAAGGAATGT [CACACA_negctrl_site1468],7.76 ± 0.62
20,TTAATGTTTGAAAGAGTGCACATAACAAAAAAAAAA [GTGCAC_site9623],10.48 ± 0.021
21,ACGTTGCGACGCAAGGTGCTTATTTTCTTATAAATA,9.19 ± 0.17
22,AACAAATTTTTTATTAAACACACAAACATATATATA [CACACA_site8588],8.04 ± 0.73

row,Sequence,gcPBM binding intensity (ln)
1,GCTCATTGAAATTATACACACCAAATATATAAATAT [CACACA_site5385],7.99 ± 0.49
2,TGTGAATATATCTTTAAAAAGGATAAATAATAATTT [CACACA_negctrl_site507],7.44 ± 0.54
3,TTTTATTTTTTCTATACATGCATGTCCAATTTTCTT [TGCATGCA_site304],8.03 ± 0.74
4,TTATGGTATAAAAAAATACACACTTATATATATTCT [CACACA_site488],7.58 ± 0.53
5,GTTTTTTTATAAAATTTTTATATAATTCTTTTATAA [CACACA_negctrl_site1605],7.72 ± 0.53
6,AAAAAAAAAAAAAACACACATACACGCCCACCCATA [CACACA_site3391],8.64 ± 0.71
7,TAATAATAAAAAATACGTACATATTATTTATATATG [XGTACX_site853],7.76 ± 0.12
8,CATTTTATTCTATATGCATGTTAAAAAATGTGTTGA [TGCATGCA_site128],7.83 ± 0.51
9,ATATATAAGAACATATATATTGGAAATATTGAATTT [XGTACX_negctrl_site121],7.93 ± 0.43
10,AATAAAAATATTATATGTACATATTTTAATATATAT [XGTACX_site1259],7.73 ± 0.44
11,TTATATAACTTTTCTAGTACTTGTATAAATTCCTAC [XGTACX_site3685],7.87 ± 0.57
12,AAAAAAAAAGAAAAACGTACGTTTATTTAATATATA [XGTACX_site4018],7.34 ± 0.67
13,ATAATACCCATTATCTTACAACAAAATGCAAACAAA [CACACA_negctrl_site1037],7.78 ± 0.44
14,AACATAATATCATATACACACAAAAATATTGAAATA [CACACA_site2160],7.72 ± 0.52
15,AAGAACATATTATATACATGCATAATTCGATAGATT [TGCATGCA_site882],7.9 ± 0.69
16,AAAATTAGATTATGCACACACACTTAAAAATAATAA [CACACA_site1975],9.97 ± 0.46
17,TAATTATAATAATAACGTACATATATAAAATGGTGA [XGTACX_site8434],8.04 ± 0.34
18,TTAAAATATGTAGCTACACACACATAAACAAAATAA [CACACA_site8244],7.81 ± 0.55
19,TGTAGTCTGGAGAAAAGTACACAGTATCTGGTAGCT [XGTACX_site2012],7.73 ± 0.78
20,TATATATATATATAGGTGCTATAATTTATATACACA,10.2 ± 0.3
21,TTTTTTTTTCTGAATTTATAATTCAAAAATATATAT [CACACA_negctrl_site300],7.57 ± 0.67
22,AGCAGTTTTTTTTTTTTTTTTTTTTTTATTAAAAGC [XGTACX_negctrl_site392],7.51 ± 0.53

# From the supplement of paper PMC11417369
